In ChEMBL document CHEMBL1201862, “PubChem BioAssay data set” (2004):
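Each compound was tested at five concentrations against cells in 96-well plates for 48 hours. Here, GI50 denotes the concentration required for 50% inhibition of growth.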 Active and inactive are the calls of the source. Cut-off read from the data, not from the text of the source: active = GI50 up to about 1.1 µM and inactive = higher.

system: NCI-H322M; test: inhibition of tumour cell growth, NCI panel, 48 h

Row | Compound | GI50
1 | CCOC(=O)Nc1sc2c(c1C#N)CCCC2 | inactive: > 100 µM
2 | CC(=O)c1c(C)n(C)c2c1nnc1ccccc12 | inactive: 43.1 µM
3 | Cc1ccc(NC(=O)C(=O)C2C(=O)NC(=O)NC2=O)c(C)c1 | inactive: > 100 µM
4 | Brc1cc(C2OCCCO2)ccc1OCc1ccccc1 | inactive: 35.1 µM
5 | O=c1c2c(c1=O)C1(SCCCS1)c1cc(Cl)ccc1O2 | inactive: > 100 µM
6 | O=[N+]([O-])c1ccc2sc(/C=N/c3ccccn3)cc2c1 | inactive: > 100 µM
7 | COC(=O)c1c(O)ccc2c1c1c(n2CCc2ccc(OC)c(OC)c2)C(=O)c2ccccc2C1=O | inactive: 15.5 µM
8 | COc1ccc2c(c1)CC[C@@H]1C2CC[C@]2(C)C(=C=CP(=O)(O)O)CCC12 (stereo partly drawn) | inactive: > 100 µM
9 | Cn1c(=O)c2c(nc(N)n2C2OC(CO)C(O)C2O)n(C)c1=O (stereo not drawn) | inactive: > 100 µM
10 | CSCSCC(CO)NC(=O)/C=C\c1c(C)[nH]c(=O)[nH]c1=O (stereo not drawn) | inactive: 3.09 µM
11 | CCOC(=O)C(C)(C)Oc1ccc2c(-c3ccc(Cl)cc3)c(-c3ccc(Cl)cc3)c(=O)oc2c1 | inactive: > 100 µM
12 | C/C=C1\CN(C(=O)OC(C)(C)C)C1C(=O)OC(C)(C)C (stereo not drawn) | inactive: > 100 µM
13 | CCOC(=O)N1CCC2(CC1)C[C@@](C(C)=O)(c1ccccc1)C(C)O2 (stereo partly drawn) | inactive: > 100 µM
14 | COc1ccc(OC(C)C(=O)O)c2c1CCCC2=O (stereo not drawn) | inactive: > 100 µM
15 | O=CN1CCN(CC(O)CN2CCCCC2)CC1 (stereo not drawn) | inactive: > 100 µM
16 | CCOC(OC1=C(C#N)CCCC1)C(C)[Se]c1ccccc1 (stereo not drawn) | inactive: > 100 µM
17 | Cc1cc2c(C)cc(=O)[nH]c2cc1N | inactive: > 100 µM
18 | NC1CC(=O)c2cc(Cl)sc21 (stereo not drawn) | inactive: > 100 µM
19 | COc1ccccc1[S+]([O-])Nc1ccccc1 (stereo not drawn) | inactive: > 100 µM
20 | NNC(=O)CCC(=O)Nc1ccc(Cl)cc1Cl | inactive: > 100 µM
21 | O=C1CCC(Cl)=CC2CCCN12 (stereo not drawn) | inactive: > 100 µM
22 | CC(C)C1CC2C(=O)N(c3ccccc3)C(=O)C2c2[nH]c3ccccc3c21 (stereo not drawn) | inactive: 66.2 µM
23 | S=c1oc(CCCCCCCCc2nn(CNc3ccccc3)c(=S)o2)nn1CNc1ccccc1 | inactive: > 100 µM

Row | Compound | GI50
24 | COc1cc2nc3n(c(=O)c2cc1OC)CCCCC3 | inactive: > 100 µM
25 | COC(=O)CSC1CC(=O)c2c(Cl)sc(Cl)c21 (stereo not drawn) | inactive: > 100 µM
26 | CC#CC#C/C=C1\C=CC2(OC=CC2O)O1 (stereo not drawn) | inactive: > 23.3 µM
27 | Cc1cccc(/N=N/C(=N\NC(=O)c2cc(Cl)ccc2O)c2ccc(N(CCC#N)CCC#N)cc2C)c1 | inactive: 23.8 µM
28 | O=C1C[C@@H](Sc2ccccc2)C2(OCCO2)C2ON3CCCC[C@H]3[C@H]12 (stereo partly drawn) | inactive: 14.3 µM
29 | Sc1nnc(-c2cccnc2)[nH]1 | inactive: > 100 µM
30 | CC1(C)S[C@H](CN)N[C@H]1C(=O)OC(c1ccccc1)c1ccccc1 | inactive: 92.3 µM
31 | O=C(N/N=C1\CCc2ccccc2C1)N/N=C1\CCc2ccccc2C1 | inactive: > 10 µM
32 | Cc1c2c(C(N)=O)nccc2c(C)c2c1c1ccccc1n2Cc1ccccc1 | inactive: 13.6 µM
33 | O=C(C/N=C(\CN(c1ccccc1)c1ccccc1)Oc1ccc(Cl)cc1Cl)n1ccnc1 | inactive: > 100 µM
34 | C=CCOC(=O)[C@@H]1C[C@@H](OC(C)(C)C)CN1C(=O)[C@@H]1[C@H]2OC(C)(C)O[C@H]2CN1C(=O)OCC1c2ccccc2-c2ccccc21 | inactive: 18.2 µM
35 | CN1CC[C@]2(c3cccc(O)c3)CC(=O)/C(=C/c3ccccc3)[C@@H]1C2.[O-][Cl+3]([O-])([O-])O | inactive: 10.3 µM
36 | COc1ccc(/C=C2\C[C@H]3[C@@H]4CC=C5C[C@@H](O)CC[C@]5(C)[C@H]4CC[C@]3(C)\C2=N\O)cc1 | inactive: 36.3 µM
37 | COc1cccc(Cc2cc(=O)c3ccc(C)nc3[nH]2)c1 | inactive: > 100 µM
38 | COc1ccc2c(c1)CC1(O)COc3cc(OC)ccc3C1O2 (stereo not drawn) | inactive: > 100 µM
39 | COC(=O)/C=C(C)/C=C/C1OC(C)OCC1O (stereo not drawn) | inactive: > 100 µM
40 | Cc1csc(CP(=O)(OC(C)C)OC(C)C)n1 | inactive: > 100 µM
41 | Cn1c(S)nnc1CNc1ccc(-c2nnc(S)n2C)cc1 | inactive: > 100 µM
42 | CC(=O)N(C(=O)CC(=O)NNCc1ccccc1Cl)c1ccc(Cl)cc1 | inactive: > 10 µM
43 | COc1ccccc1C1(c2c(OC(C)C)c(=O)c2=O)SCCCS1 | inactive: > 100 µM
44 | Cc1ccc2c(c1)[nH]c(=S)n2C=C1C(=O)CC(C)(C)CC1=O | inactive: > 100 µM
45 | O=C1CSC(c2ccccc2O)N1c1ccc(-n2c(-c3ccccc3)nc3ccccc3c2=O)cc1 (stereo not drawn) | inactive: 31 µM
46 | COC(=O)[C@]1(c2cc3ccccc3n2S(=O)(=O)c2ccccc2)CC2CN(C(C)=O)C1CC2=O (stereo partly drawn) | inactive: 3.79 µM

Row | Compound | GI50
47 | N#CCc1nc2cc(C(F)(F)F)ccc2s1 | inactive: > 100 µM
48 | COC1(OC)CCCCC2c3cccc(OC(C)=O)c3C21OC(C)=O (stereo not drawn) | inactive: > 100 µM
49 | COc1nc(SC)nc2c1C(O)n1c(nc3ccccc31)S2 (stereo not drawn) | inactive: 20.6 µM
50 | C/C(=C1/CCCC2(N=NCC2c2ccccc2)C1=O)c1ccccc1 (stereo not drawn) | inactive: 39 µM
51 | O=C(CC(=O)c1ccccc1)C(=O)Nc1ccc(Cl)cc1 | inactive: > 100 µM
52 | CCOC(=O)Cn1c(=O)c2nc(SC)sc2n(CC)c1=S | inactive: > 100 µM
53 | C=CC1=C(C)c2cc3[nH]c(cc4nc(cc5[nH]c(cc1n2)c(C)c5CCC(=O)N(CC)CC)C(CCC(=O)N(CC)CC)=C4C)c(C)c3C=C | inactive: > 100 µM
54 | COc1ccc2nc(N/N=C/C(C)=N/Nc3cc(C)c4cc(OC)ccc4n3)cc(C)c2c1 | inactive: 24.3 µM
55 | O=c1[nH]c(N/N=C\C(O)C(O)C(O)C(O)CO)nc2ccccc12 (stereo not drawn) | inactive: > 100 µM
56 | CC1N(O)C(c2ccccc2)C(c2ccccc2)=[N+]1[O-] (stereo not drawn) | inactive: > 100 µM
57 | CCOC(=O)/C(=C\c1c(C)[nH]c2ccccc12)P(=O)(OCC)OCC | inactive: > 100 µM
58 | CS(=O)(=O)OCCN(CCOS(C)(=O)=O)c1ccc(/C=N/N=c2/nc[nH]c3nc[nH]c23)cc1 | inactive: 14.4 µM
59 | O=C1CC(NC(=O)C(F)(F)F)c2c(Br)sc(N3CCC(c4ccccc4)CC3)c21 (stereo not drawn) | inactive: 18.8 µM
60 | CC1OC(n2cc(C(F)(F)F)c(=O)[nH]c2=O)C=CC1=O (stereo not drawn) | inactive: 26.1 µM
61 | Cn1c(=O)n(C2(C)CSC2)c2ccccc21 | inactive: > 100 µM
62 | CCOC(=O)/C(=C/c1ccc(C(=O)OC)cc1)N(CC)CC | inactive: 69.2 µM
63 | O=C(O)/C(=C\c1ccccc1Cl)S(=O)(=O)c1ccccc1 | inactive: > 100 µM
64 | CSc1nc(NC2OC(COC(C)=O)C(OC(C)=O)C(OC(C)=O)C2OC(C)=O)c(/N=C/C=N/c2c(NC3OC(COC(C)=O)C(OC(C)=O)C(OC(C)=O)C3OC(C)=O)nc(SC)[nH]c2=O)c(=O)[nH]1 (stereo not drawn) | inactive: > 100 µM
65 | CCOCc1cc(=O)c2c(OC)cc3c(c2o1)CCC(C)(C)O3 | inactive: > 100 µM
66 | C=CCOC1OC(CS(=O)(=O)O)C(OC(C)=O)C(OC(C)=O)C1OC(C)=O (stereo not drawn) | inactive: > 100 µM
67 | Cc1ccc(N(Cc2ccccc2)Cc2ccccc2)cc1 | inactive: > 100 µM
68 | Oc1[nH]c(Nc2cccc(Cl)c2)nc2ncnc1-2 | inactive: 84.5 µM
